Measurements: article PMC4336329 (PLoS ONE, 2015)
Hit rate of the full screen: of about 310,000 compounds, about 2,200 (0.71%) showed an effect of 50% or more. The effect is printed as a negative number. The list shows a part of the results.

Target: human ether-à-go-go-related gene (hERG) potassium channel (human, UniProt Q12809)
Experiment: primary screen, population patch clamp on CHO cells stably expressing hERG

Sequence of human ether-à-go-go-related gene (hERG) potassium channel (Q12809 whole entry, looked up): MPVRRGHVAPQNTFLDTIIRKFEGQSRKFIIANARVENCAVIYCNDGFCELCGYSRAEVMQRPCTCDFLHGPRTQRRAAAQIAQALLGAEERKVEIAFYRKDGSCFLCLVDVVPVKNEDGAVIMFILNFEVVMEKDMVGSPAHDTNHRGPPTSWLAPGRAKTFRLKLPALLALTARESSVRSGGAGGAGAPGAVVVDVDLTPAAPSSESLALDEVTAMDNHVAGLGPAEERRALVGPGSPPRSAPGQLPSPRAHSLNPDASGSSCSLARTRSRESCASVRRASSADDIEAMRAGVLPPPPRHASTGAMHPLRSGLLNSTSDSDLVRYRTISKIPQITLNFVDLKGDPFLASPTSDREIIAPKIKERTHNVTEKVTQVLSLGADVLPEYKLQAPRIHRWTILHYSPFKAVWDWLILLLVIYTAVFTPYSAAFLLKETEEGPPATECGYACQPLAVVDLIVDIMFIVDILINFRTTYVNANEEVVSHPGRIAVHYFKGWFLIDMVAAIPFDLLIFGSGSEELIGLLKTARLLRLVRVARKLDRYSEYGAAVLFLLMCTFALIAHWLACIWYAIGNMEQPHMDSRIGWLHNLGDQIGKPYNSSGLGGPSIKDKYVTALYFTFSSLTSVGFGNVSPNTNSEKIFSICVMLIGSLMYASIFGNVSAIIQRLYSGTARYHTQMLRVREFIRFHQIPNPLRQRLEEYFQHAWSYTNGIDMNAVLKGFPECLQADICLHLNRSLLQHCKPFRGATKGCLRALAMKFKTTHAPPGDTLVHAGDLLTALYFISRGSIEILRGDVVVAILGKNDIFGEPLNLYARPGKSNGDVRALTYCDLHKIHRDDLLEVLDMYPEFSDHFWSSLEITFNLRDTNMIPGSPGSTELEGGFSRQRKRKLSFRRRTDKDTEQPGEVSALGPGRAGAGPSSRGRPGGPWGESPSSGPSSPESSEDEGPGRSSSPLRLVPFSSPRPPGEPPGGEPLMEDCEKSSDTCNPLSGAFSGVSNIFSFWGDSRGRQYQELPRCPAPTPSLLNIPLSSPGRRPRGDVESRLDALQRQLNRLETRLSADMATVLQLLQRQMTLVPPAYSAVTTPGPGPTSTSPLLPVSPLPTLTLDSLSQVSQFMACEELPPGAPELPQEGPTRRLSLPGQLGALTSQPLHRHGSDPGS

Compound	hERG current change (%, negative = inhibition) at 1uM [%]
O=C(CNC(=O)c1ccccc1)NCc1ccc(Cl)cc1	16.4
COCCCNC(=O)CSc1nc2c(sc(=S)n2-c2cc(Cl)ccc2OC)c(=O)[nH]1	15.2
Cc1ccc(C(CNS(=O)(=O)c2ccc(Br)cc2)N2CCN(C)CC2)cc1 (centres unmarked)	-18.7
COc1cccc(NC(=O)c2nnn(Cc3ccc(Br)cc3F)c2N)c1	9.85
COc1cc(/C=C/C(=O)OCC(=O)Nc2cccc(Oc3ccccc3)c2)ccc1O	4.94
CC(=O)c1c(C)[nH]c(C(=O)OCC(=O)Nc2cc(S(=O)(=O)N3CCCC3)ccc2Cl)c1C	15.6
COc1ccc(CCNC(=O)C2Cc3ccccc3C(=O)O2)cc1 (centres unmarked)	-1.47
CCOC(=O)C1=C(O)CSC1=Nc1ccc(Cl)cc1	11.9
O=C(Nc1nc(-c2ccccc2)cs1)NC1CCCCC1	4.35
CC(NC(=O)c1ccccc1)c1nc2ccccc2n1Cc1ccccc1F (centres unmarked)	14.7
C=CCNC(=O)c1ccc(N(Cc2ccc(Cl)cc2)S(C)(=O)=O)cc1	5.31
CCOc1nc(-c2ccc(OC)cc2)ccc1-c1noc(-c2cc(OC)c(OC)c(OC)c2)n1	4.92
CC(/C=C/c1ccccc1)=N\Nc1ccccc1[N+](=O)[O-]	16.6
O=C(Cc1ccc(N2CCNC2=O)cc1)N1CCCC(Nc2ccc(F)c(F)c2)C1 (centres unmarked)	5.29
CC(C)(C)OC(=O)N1Cc2[nH]c3ccccc3c2C[C@@H]1C(=O)O	9.62
O=C(Nc1ccccc1C(=O)Nc1ccc(Br)cn1)c1ccccc1Cl	5.22
COc1ccc(C(=O)NC(=S)NNC(=O)c2cnccn2)cc1	7.7
O=C(/C=C/Sc1ncn[nH]1)c1ccc(Cl)cc1	4.44
Fc1ccc(OCc2nc(-c3ccc(Br)o3)no2)c(F)c1	7.15

Compound	hERG current change (%, negative = inhibition) at 1uM [%]
Cc1nn2c(COc3ccc(NC(=O)C(C)C)cc3)nnc2c2ccccc12	11.1
Cc1nc2ccc(N)cc2c(=O)n1Cc1ccc(Cl)cc1	5.92
CCOc1ccc(CNCc2ccccc2Cl)cc1.Cl	-42
COc1ccccc1C(=O)NNC(=O)CN1C(=O)c2ccccc2C1=O	13.5
CN(c1cccc(NS(=O)(=O)c2cccc([N+](=O)[O-])c2)c1)S(C)(=O)=O	6.56
CC(NC(=O)COC(=O)C1=COCCO1)C12CC3CC(CC(C3)C1)C2 (centres unmarked)	11.1
Cc1ccc(C(=O)Nc2cccc([N+](=O)[O-])c2)cc1S(=O)(=O)Nc1ccc(C(=O)O)cc1	4.35
CN1CCN(CC(=O)Nc2ccc(S(=O)(=O)N(C)C)cc2)CC1.O=C(O)C(=O)O	6.77
Cn1cc(C(=O)NC2CCCCC2)c(=O)c2cc(S(=O)(=O)N3CCCC3)ccc21	0.024
O=C(COc1ccc(Cl)cc1)NCC(=O)N1CCC2(CC1)NCCc1[nH]cnc12	13.1
Cc1cc(N2CCN(Cc3cn(C)nc3-c3cccc(Cl)c3)CC2)cc(C)n1	-4.6
O=C(COc1cccc(Br)c1)NN=C1c2ccccc2-c2ccccc21	1.87
CCCNC(=O)NC(=O)CSc1nnc(-c2c[nH]c3ccccc23)o1	13.8
O=c1oc2ccccc2c(N2CCCC2)c1CN1CCCC1	10.6
O=C(CC12CC3CC(CC(C3)C1)C2)Nc1cccc2ncccc12	-6.16
COc1ccc(C(=O)N2CC3(CC(c4ccc(Cl)cc4)=NO3)C[C@H]2C(=O)NCC(N)=O)cc1 (some centres unmarked)	11.5
Nc1ccc(Sc2cnn(-c3ccccc3)c(=O)c2Cl)cc1	-12
Cc1ccc(OCC(=O)NS(=O)(=O)c2ccccc2)cc1	6.83
Cc1cccc(CS(=O)(=O)Cc2ccc(C(=O)NCCCN3CCCC3)o2)c1	6.86

Compound	hERG current change (%, negative = inhibition) at 1uM [%]
O=C(NCC(=O)N1CCN(C/C=C/c2ccccc2)CC1)c1ccc(OC(F)F)cc1	-50.4
COC(=O)Cn1cccc1C(=O)c1ccccc1	-0.447
Cc1c(C(=O)OC2CCCCC2)[nH]c2c1C(=O)CC(C)(C)C2	-0.774
COc1cc(C(=O)Nc2nnc(S(=O)(=O)N3CCCCCC3)s2)cc(OC)c1OC	3.09
CCOC(=O)c1ccc(S(=O)(=O)N2CCN(CCC#N)CC2)cc1	-8.75
O=[N+]([O-])c1ccc(CSc2nnc(Cc3ccccc3)o2)cc1	7.27
CCOc1ccc(NC(=O)CC2C(=O)N(c3ccccc3)C(=S)N2Cc2ccccn2)cc1 (centres unmarked)	11.5
CCCCCC1=CCC/C1=N\NC(=O)c1ccc2c(c1)OCO2	1.99
Cc1nnc(NC(=O)CSc2nnc(C)n2-c2ccc(F)cc2)s1	7.7
O=C(COc1cccc2cccnc12)N/N=C/c1cccn1-c1ccc(F)cc1	3.92
Cc1ccc(C(=O)C(C)Sc2nnc(N)s2)cc1 (centres unmarked)	1.71
CN=C(C)/C(C(=O)OC)=C(/O)c1c(F)cccc1F	8.9
O=C(NC1CCCC1)C(c1ccc(Cl)cc1)N1CCc2ccccc21 (centres unmarked)	12.8
CCOC(=O)N1CCN(CCC(=O)Nc2ccc(OC)cc2)CC1	5.78
Cn1c(CCNC(=O)c2ccc(Cl)cc2)n[nH]c1=S	13.9
CC(C)NC(=O)c1onc(CSc2ccccn2)c1C(=O)NC(C)C	11
Cc1nc(N2CCN(c3ccccn3)CC2)c2c(C)c(C(=O)N3CCN(c4cccc(Cl)c4)CC3)sc2n1	15.3
CCCCC(=O)N/N=C/c1ccc(N2CCOCC2)c([N+](=O)[O-])c1	8.47
